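All cell lines were grown in 96-well plates and treated with compound for 48 hours. TGI: total growth inhibition.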 Some entries of the source have several records that differ or are many. The list is limited to them. There may be further records. Records of one sample usually come from different ranges of test concentrations, not given here; some values may only mark the edge of a range.
Tested on: MDA-MB-468 breast
Experiment: DTP human tumour cell line panel, 48 h

COc1cc2c(c(O)c1Cl)C(=O)c1c(O)cc(C[C@H](C)O)cc1[C@H]2[C@H]1c2cc(C[C@H](C)O)cc(O)c2C(=O)c2c1cc(OC)c(Cl)c2O
TGI: 5.25 µM and 61.7 µM

— PubChem BioAssay (NCI)
